# Assay results as given in the supplement of paper PMC10338343.
# ± gives the standard deviation. The list shows a part of the results, in another mix than the full data.
# System: MIWI (PIWIL1) piRISC loaded with L1MC piRNA (30 nt)
# Test: pre-steady-state target cleavage rate (min^-1); MIWI and MILI are mouse PIWI proteins and EfPiwi is from a freshwater sponge; tags in brackets are library labels; higher = faster piRNA-guided slicing of the target
# Conditions: guide: L1MC piRNA 5'p-UAACUAAAUACUAUGCAAGCUGUAGGUCCU
# In short: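 Cleave-'n-Seq used a transcribed, DNA-blocked target RNA library at 0.1 nM and active affinity-purified piRISC with one synthetic guide at 1 nM, with or without 500 nM GTSF1 partner protein, in HEPES–potassium acetate buffer at 33 °C for 0–8 or 0–960 min. Uncleaved targets were sequenced and normalised to depth and to weakly complementary targets, and three trials were pooled with k3 capped at 0.0001 min^-1. The pre-steady-state cleavage rate was estimated by a burst-and-steady-state fit.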
# [1] = auxiliary factor: 500 nM mouse GTSF1
# [2] = auxiliary factor: none (no GTSF1)
Sequence,pre-steady-state target cleavage rate [1],pre-steady-state target cleavage rate [2]
UCCUGCUACAGCUUGCUAUGUAUUUAGUUA,0.14 ± 0.018,0.00454 ± 0.0017
UCCUGGAUCAGCUUGCAUAGUAUUUAGCUUA,0.332 ± 0.024,0.0283 ± 0.0079
UCCUGGAUGAGCUUGCAUAGUAUUUAGUAA,0.713 ± 0.061,0.0327 ± 0.0088
UCCACCUACAGCUUGCAUAGUAUUUAGUUC [g2:g27:cont:t1C],0.832 ± 0.031,0.0745 ± 0.014
UCCACCAACAGCUUGCAAAGUAUUUAGUUA,1.05 ± 0.041,0.0371 ± 0.0082
UCCUGGAACAGCUUGCAUAGUAAUUAGUUA,0.798 ± 0.041,0.0276 ± 0.006
UCCUGGAUCUGCUUGCAUAGUAUUUAGUAA,0.591 ± 0.039,0.013 ± 0.0035
UCGACCUACAGCUUGCAUAGUGUUUAGUUA,1.05 ± 0.041,0.0665 ± 0.013
UCCUGCUACAGCUUGCAUAGUAUAUUAGUUA,0.891 ± 0.065,0.00734 ± 0.0025
UCCUGGAUCUGCUUGCAUAGUAUUUACAAA,0.141 ± 0.025,0.0028 ± 0.0023
UCCUGCUACACCUUGCAUAGUAUUUACUUA,0.229 ± 0.056,0.0124 ± 0.0051
UCCUGGAACAGCUUGCAUAGUAUUUAGCUA,0.0325 ± 0.013,0.00561 ± 0.003
UCCACCUACAGGUUGCAUAGUAUAUAGUUA,0.787 ± 0.099,0.0128 ± 0.0027
UCCUGGAUGUGCUCUGCAUAGUAUUUAGUUA,0.21 ± 0.025,0.00818 ± 0.0038
UCCUGCAACAGCUUGCAUAGUAUUUACAAA,0.393 ± 0.071,0.00387 ± 0.0028
AGGACCUACAGCUUGCAUAGUAUUUCAGUUA,0.735 ± 0.08,0.129 ± 0.034
UCCUGGAUGUGCUAGCAUAGUAUUUAGUAA,0.033 ± 0.0071,0.0042 ± 0.0028
UCCUGGAUGUGCAUGCAUAGUAUUUACUUA,0.0517 ± 0.0099,0.0106 ± 0.0044
UCCUGGAUCUGCUAGCAUAGUAUUUAGUUA,0.302 ± 0.032,0.00579 ± 0.0027
UCCUCGUACAGCUAGCAUAGUAUUUAGUUA,1.21 ± 0.05,0.0198 ± 0.0034
UCCUCCUACAGCUUGCAUAGUAUUUUGAAA,0.394 ± 0.046,0.00421 ± 0.0032
UCGACCUACAGCUUGCAUAGUAUUUACAUA,0.283 ± 0.034,0.0198 ± 0.0068
UGGACCUAGAGCAUGCAUAGUAUUUAGUUA,0.952 ± 0.059,0.0242 ± 0.0069
UCCUCCUACAGCUUGCAUAGAAUUUAGUAA,0.429 ± 0.057,0.0089 ± 0.003
AGGACCAACAGCUUGCAAAGUAUUUAGUUA,1.18 ± 0.038,0.0503 ± 0.01
UCCUGGAUGUGCUUGCAUAGUAUCUAGUUA,0.259 ± 0.029,0.0261 ± 0.0071
UCCUCCUACACCAUGCAUAGUAUUUAGUUA,0.808 ± 0.032,0.0134 ± 0.002

Sequence,pre-steady-state target cleavage rate [1],pre-steady-state target cleavage rate [2]
UCCUGGUACAGCUUGCAUAGUUAUUAGUUA,0.115 ± 0.018,0.018 ± 0.0051
UCCUGGAACUGCUUGCAUAGUAUUUAGUUA,0.789 ± 0.027,0.0296 ± 0.0071
UCCUGGAUGAGCUUGCAAAGUAUUUACUUA,0.194 ± 0.031,0.0187 ± 0.0048
UCCUGGAUCUGCUUGCAUAGUAUUAAGUUA,0.275 ± 0.025,0.0106 ± 0.0034
UCCUGGAAGAGCUUGCAUAGAAUUUAGUUA,0.211 ± 0.023,0.0134 ± 0.0054
UCCUCCUACAGCUUGCAUAGUUAUUAGUAA,0.119 ± 0.02,0.0033 ± 0.0018
UCCUGGAUGAGCUUGCAUAGUAUUUUGAAA,0.174 ± 0.033,0.00589 ± 0.0026
UCGACCUACACCUUGCAUAGUAUUAAGUUA,0.672 ± 0.07,0.0228 ± 0.0049
UCCUCCUACAGCUUGCAUACUAUUUAGUUA,0.37 ± 0.023,0.0292 ± 0.0044
UCCUGGAAGAGCUUGCAUAGUAUUAAGUUA,0.423 ± 0.038,0.0173 ± 0.0046
AGGACCUACAGCUUGCAUAGUAUUUUGAAA,0.436 ± 0.049,0.0119 ± 0.005
UCGACCUACAGCAUGCAUAGUAUUUACUUA,0.545 ± 0.046,0.0246 ± 0.0054
UCCUGGUACAGCUUGCAUAGUAUUUAGUUA [g2:g24:cont:t1A],0.82 ± 0.041,0.0692 ± 0.013
UCCUCCUACACCUUGCAUAGUUUUUAGUUA,0.228 ± 0.041,0.0173 ± 0.0035
UCGACCUACAGCAUGGAUAGUAUUUAGUUA,1.59 ± 0.076,0.0294 ± 0.005
AGGACCUACAGCUUGGAUAGUAUUUAGUAA,1.02 ± 0.063,0.0552 ± 0.012
UCCUGGUACAGCUAGCAUACUAUUUAGUUA,0.316 ± 0.051,0.0105 ± 0.0027
UGGACCUACAGCUUGCAUAGUAUUUGGUUA,1.21 ± 0.054,0.0534 ± 0.011
UCCUGGUUCAGCUUGCAUAGUAUUAAGUUA,0.454 ± 0.049,0.0235 ± 0.0062
UCCUGGAACUCCUUGCAUAGUAUUUAGUUA,0.46 ± 0.048,0.00821 ± 0.0033
UCCUGGAUCACCUUGCAUAGUAUUUAGUUA,0.502 ± 0.028,0.0141 ± 0.0042
AGGACCUACAGCUUGAUAGUAUUUAGUUA,1.21 ± 0.082,0.0133 ± 0.0041
UGGACCUACAGCUUGCAUAGUAUUUAUUA,0.126 ± 0.015,0.00594 ± 0.0034
UCCUGGUACAGCUUGCUAUGUAUUUAGUUA,0.0851 ± 0.01,0.00758 ± 0.0022
UCCUGCUACACCAUGCAUAGUAUUUAGUUA,0.783 ± 0.035,0.00793 ± 0.002
UCCUGCUACACGCUUGCAUAGUAUUUAGUUA,0.645 ± 0.058,0.0232 ± 0.0045
UCCUGGUACAGCAUGCAUAGUAAUUAGUUA,0.457 ± 0.054,0.0118 ± 0.0031

Sequence,pre-steady-state target cleavage rate [1],pre-steady-state target cleavage rate [2]
AGGACCUACAGCUUGCAUAGUAAUUUGUUA,0.524 ± 0.055,0.0327 ± 0.01
UCCUGCUACAGCUUGCAUAGUAUAAUGUUA,0.322 ± 0.029,0.00938 ± 0.003
UGGACCUACAGCUUGCAUAGUCUUUAGUUA,0.884 ± 0.048,0.0432 ± 0.011
AGGACGUACAGCUUGCAUUGUAUUUAGUUA,0.718 ± 0.047,0.0403 ± 0.0096
UCCUCCUACAGCUUGCAUAUUAUUUAGUUA,1.23 ± 0.04,0.0449 ± 0.009
AGGACCUACAGCUUGCAUACUAUUAAGUUA,0.222 ± 0.028,0.0148 ± 0.0028
UCCUGGAACAGCUUGCAUAGUUUUUAGUAA,0.191 ± 0.025,0.0332 ± 0.01
UCCUGGAAGAGCUUGCAUAGUAUUUACUUA,0.134 ± 0.026,0.0136 ± 0.0036
UCGACCUUCAGCUUGCAUAGUAUAUAGUUA,0.901 ± 0.049,0.0272 ± 0.007
UCCUGGAACUGCUUGCAUAGAAUUUAGUUA,0.192 ± 0.021,0.00872 ± 0.0032
UCCUGCUACAGCUUGCAAGUAUUUAGUUA,0.325 ± 0.036,0.00689 ± 0.0028
UCCUGGUACAGGUUGCAUAGUAUUUAGUUA,0.688 ± 0.077,0.02 ± 0.0044
UCCUGCUAUCAGCUUGCAUAGUAUUUAGUUA,1.04 ± 0.046,0.0859 ± 0.018
UGGACCUACAGCAAGCAUAGUAUUUAGUAA,0.898 ± 0.11,0.0053 ± 0.0019
UGGACCUACAGCUUGGAAAGUAUUUAGUUA,1.03 ± 0.038,0.00647 ± 0.0024
UCCUGCUACAGCUUGCAUAGUAUUUAGCUA,0.257 ± 0.07,0.00858 ± 0.0026
UCCUCCUAGCAGCUUGCAUAGUAUUUAGUUA,1.12 ± 0.046,0.0448 ± 0.0093
UCCUCCUACUCCUUGCAUAGUAUUUACAAA,0.269 ± 0.043,0.00227 ± 0.0019
UGGACCUACAGCUUGGUUAGUAUUUAGUUA,1.28 ± 0.054,0.0112 ± 0.0026
UCCUGGAACACCUUGCAUAGUAUUUAGUAA,0.392 ± 0.049,0.0052 ± 0.0024
UCCACCUACAAGCUUGCAUAGUAUUUAGUUA,0.715 ± 0.031,0.0426 ± 0.0076
AGGACGUACAGCUUGCAUAGUAUUAAGUUA,0.713 ± 0.089,0.0343 ± 0.007
ACGACCUACAGCUUCCAUAGUAUUUAGUUA,0.258 ± 0.062,0.00673 ± 0.003
UGGACCUAGAGCUUCCAUAGUAUUUAGUUA,0.0252 ± 0.0086,0.00226 ± 0.0018
UCGAGCUACAGCUUGCAUUGUAUUUAGUUA,0.903 ± 0.029,0.0344 ± 0.0094
UCCUGCUACAGCUUGCAUAGAAAUUAGUUA,0.2 ± 0.021,0.00609 ± 0.0021
